Laboratory results published in PubChem BioAssay AID651820 (National Center for Advancing Translational Sciences (NCATS), 2012).
Values joined by “and” are separate entries in the source; they are usually repeats but may differ in a detail not shown here. Equal entries are not always repeated. The campaign covered roughly 340,000 compounds. About 12,000 (3.5%) were called active. This list was built around the results that the source calls inconclusive (neither active nor inactive); the mix of calls is not that of the screen. The call rests on the fitted dose curve; in most records, active means well fitted inhibition curve with a large enough effect; inconclusive means small, poorly fitted or top-dose-only effect, or another doubt; inactive means no such curve, though single readings can be large or run the other way. Potencies beside an inconclusive call are fits to weak or partial responses and may not hold up.

Assay: qHTS Assay for Inhibitors of Hepatitis C Virus (HCV)
Conditions: Huh7.5.1 HCVcc-Cre (HCVcc is cell-culture hepatitis C virus) infection, luciferase reporter, 44 h; activity change, negative = inhibition: at 41.8 µM (top of the series) unless noted
In short: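 Reporter virus HCVcc-Cre (~0.5 moi) infects cells exposed to compound; seeding density 1,000 cells/well with 4 h settling beforehand. Luminescence, 15 sec read, taken 44 h post-infection following a 15 min RT substrate incubation.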
On the % scale 0 is the no-effect control and ±100 the full control effect; potency means the concentration at half of the fitted maximal effect; tags describe the fitted curve by direction and shape.

Structure (SMILES)	Potency	activity change, negative = inhibition
Cc1sc2nc(C3CC3)nc(N3CCN(S(=O)(=O)c4ccc(F)cc4)CC3)c2c1C	inconclusive: 10 µM [inhibitor, single point]	–
Cc1ccccc1C(=O)Nc1ccc(C(=O)N/N=C/c2ccc(F)cc2)cc1	inconclusive: 8.91 µM [inhibitor, partial curve, poor fit]	–
c1ccc2c(-c3ccc(OCCN4CCCCC4)cc3)c(-c3ccsc3)sc2c1	inconclusive: 5.62 µM [inhibitor, partial curve]	–
CC(=O)[C@@H]1[C@@H](C)N(Cc2ccccc2)C(=O)N[C@H]1c1cccc(C(F)(F)F)c1	inconclusive: 10 µM [inhibitor, partial curve, poor fit]	–
CC(Sc1nc2ccccc2c(=O)n1CC1CCCO1)C(=O)N(C)c1ccccc1 (stereo unspecified)	inconclusive: 22.4 µM [inhibitor, single point]	–
Cc1cc(C(=O)CCC(=O)N(C)CC(=O)Nc2ccccc2Br)c(C)s1	inconclusive: 3.55 µM [inhibitor, partial curve]	–
Cc1csc(NC(=O)c2cc(-c3ccncc3)nc3ccccc23)n1	inconclusive: 8.91 µM [inhibitor, partial curve]	–
O=C(CSc1nnc(Nc2ccccc2F)s1)NCC1CCCO1 (stereo unspecified)	–	inactive: -7.2%
O=C(CC1CC2CCC1C2)Nc1nc(-c2ccccn2)cs1 (stereo unspecified)	inconclusive: 10 µM [inhibitor, partial curve]	–
CC1Cc2cc(S(=O)(=O)N3CCCCC3C)ccc2N1C(=O)C1CCC1 (stereo unspecified)	inconclusive: 31.6 µM [inhibitor, single point]	–
CCCOc1ccc(/C=N/Nc2cccc([N+](=O)[O-])c2)c(O)c1	inconclusive: 5.62 µM [inhibitor, partial curve]	–
COc1ccc(C)cc1NC(=O)C(Sc1nnc2ccccn12)c1ccccc1 (stereo unspecified)	inconclusive: 14.1 µM [inhibitor, single point]	–
COc1ccc(-c2ccc(C(C)=O)cc2)cc1[C@H]1[C@H]2C=CC[C@@H](C)[C@@H]2C(=O)N1Cc1ccccc1	inconclusive: 31.6 µM [inhibitor, single point]	–
COc1cc(C)c(/C=C/C(C)=C/C=C/C(C)=C/C(=O)O)c(C)c1C	–	inactive: 6.57%
COc1cccc(CN(C)C(=O)[C@@H](NC(=O)c2ccc(C)cc2)C(C)C)c1	inconclusive: 3.16 µM [inhibitor, single point]	–
CCOC(=O)C1CCCN(C(=O)c2cc(S(=O)(=O)Nc3ccccc3OC)ccc2C)C1 (stereo unspecified)	active: 10 µM	–
Cc1ccc(C)c(N(CC(=O)NC2CCCCC2)C(=O)c2snc(C(N)=O)c2N)c1	inconclusive: 8.91 µM [inhibitor, partial curve]	–
COc1ccc(CSc2nc(N3CCOCC3)c3c(c2C#N)CC(C)(C)OC3)cc1	inconclusive: 7.08 µM [inhibitor, partial curve]	–
CC(OC(=O)c1ccc(F)c(S(=O)(=O)N2CCOCC2)c1)C(=O)NC1CCCC1 (stereo unspecified)	–	inactive: 3.69%
CCC(C(=O)OC)n1cnc2scc(-c3ccc(C)cc3)c2c1=O (stereo unspecified)	inconclusive: 11.2 µM [inhibitor, single point]	–
COc1cc(C(=O)Nc2ccc(NC(=O)c3cccc(Cl)c3)nc2)cc(OC)c1OC	active: 3.98 µM	–
CC(C(=O)NCc1ccco1)n1ccc2cc(S(=O)(=O)N3CCCCC3)ccc21 (stereo unspecified)	inconclusive: 22.4 µM [inhibitor, single point]	–
CCOCCCn1c(=S)[nH]c2cc(C(=O)NCCCN(CC)CC)ccc2c1=O	inconclusive: 3.55 µM [inhibitor, full curve]	–
CCCCCCCCCCCCCCC[C@@H](O)[C@@H](N)CO	–	inactive: 9.76%

Structure (SMILES)	Potency	activity change, negative = inhibition
Cc1cccc(N2CC(C(=O)NC3CCCCCC3)CC2=O)c1C (stereo unspecified)	–	inactive: -12.1%
O=C(C1CC1)N1CCC(c2nc(-c3ccc(S(=O)(=O)NCC4CCCO4)cc3)no2)CC1 (stereo unspecified)	inactive and inconclusive: 31.6 µM [inhibitor, single point]	–
CCOc1ccc(-c2nc(N)ncc2Oc2cccc(OC)c2)c(O)c1	active: 12.6 µM	–
COc1ccc(C(=O)Nc2ccccc2NC(=O)c2ccco2)cc1OC	–	inactive: -3.53%
Cc1ccc(C)c(S(=O)(=O)N2CCN(C(=O)CSC(=S)N3CCCC3)CC2)c1	–	inconclusive: -35.5% [inhibitor]
Cc1cc(C)cc(OCc2nnc(SCC(=O)c3ccc(Br)cc3)o2)c1	inconclusive: 22.4 µM [inhibitor, single point]	–
Clc1ccc(OCCCCCN2CCOCC2)cc1	inconclusive: 31.6 µM [inhibitor, single point]	–
Clc1ccc(CN2CCCCCCC2)cc1	–	inactive: 2.4%
Cc1sc2ncnc(N/N=C/c3ccccc3O)c2c1C	inconclusive: 3.98 µM [inhibitor, full curve]	–
COC(=O)c1cc(NC(=O)CC2NCCNC2=O)cc(C(=O)OC)c1 (stereo unspecified)	–	inactive: 7.84%
CC[C@]12c3[nH]c4ccccc4c3CCN1C(=O)C(CC(=O)NCc1ccco1)C[C@@H]2C(=O)N1CCN(C(=O)c2ccco2)CC1 (stereo partly specified)	–	inactive: 5.16%
COc1ccc(-c2cn3c(C)c(C(=O)Nc4cccc(NC(C)=O)c4)sc3n2)cc1	–	inactive: 4.48%
CC(C)Cn1c(N)c(C(=O)NCc2cccs2)c2nc3ccccc3nc21	inconclusive: 35.5 µM [inhibitor, partial curve, poor fit]	–
Cc1ccc(NC(=O)C2CCN(C(=O)c3cccs3)CC2)c(C)c1	–	inactive: 5.26%
COc1ccc(C(C)=O)cc1CC(=O)Nc1ccc2c(c1)CCC2	inconclusive: 31.6 µM [inhibitor, single point]	–
Cc1cc(C)c2nc(Cl)c(CN(Cc3ccco3)C(=O)Nc3ccccc3C)cc2c1	inconclusive: 11.2 µM [inhibitor, partial curve]	–
Cc1cccc(NC(=O)CSCC(=O)N(C)Cc2c(F)cccc2Cl)c1	inconclusive: 31.6 µM [inhibitor, single point]	–
Cc1ccccc1NC(=O)C1CC(Cl)=CCC1C(=O)O (stereo unspecified)	–	inactive: -13.5%
Cc1ccc(S(=O)(=O)N/N=C\c2ccc3c(c2)OCO3)cc1C	–	inactive: 4.71%
Cc1ccc(S(=O)(=O)N2C/C=C\CN(S(=O)(=O)c3ccccc3Br)CC2)cc1	inconclusive: 11.2 µM [inhibitor, partial curve]	–
CC(C)(C)NC(=O)COC(=O)c1ccccc1Nc1ccc(SC(F)F)cc1	inconclusive: 11.2 µM [inhibitor, single point]	–
CCOc1ccc(S(=O)(=O)N2CCOCC2)cc1NC(=O)CCOc1ccc(C(C)(C)C)cc1	inconclusive: 5.62 µM [inhibitor, single point]	–
C/C(=N\Nc1ncc(Cl)cc1Cl)c1ccc(C#N)cc1	–	inactive: -9.82%
S=C1NC2CCCCC2N1 (stereo unspecified)	–	inactive: -2.15%

Structure (SMILES)	Potency	activity change, negative = inhibition
C#CCNS(=O)(=O)c1ccc(F)cc1Br	–	inactive: 14.3%
COc1ccc(N2C(=O)CC(N3CCN(C(=O)c4ccco4)CC3)C2=O)cc1 (stereo unspecified)	–	inactive: 5.96%
Cc1nc([N+](=O)[O-])c(Sc2nc3ccccc3[nH]2)n1Cc1ccccc1	inconclusive: 3.16 µM [inhibitor, single point]	–
CSc1cccc(NC(=S)N2CCCN(Cc3cccc(Cl)c3)C2)c1	inconclusive: 31.6 µM [inhibitor, single point]	–
Cc1ccccc1OCc1nc2ccccc2c(=O)n1NC(=O)c1ccco1	–	inactive: 9.25%
COc1cc(SC)ccc1C(=O)NCCc1ccccc1	–	inactive: -15%
CC(C)Oc1cccc(C(=O)C2CCCN(Cc3ccc4nonc4c3)C2)c1 (stereo unspecified)	inconclusive: 10 µM [inhibitor, single point]	–
Cc1c(/C=C(\C#N)c2nn(-c3ccccc3)c(N)c2C#N)c2ccccc2n1Cc1ccc(F)cc1	inconclusive: 5.01 µM [inhibitor, partial curve]	–
CC1CCc2nn(CC(=O)N3CCCCCC3)cc2C1 (stereo unspecified)	–	inactive: 2.5%
O=C(CCc1nc2ccccc2c(=O)[nH]1)NCCN1C(=O)S/C(=C\c2ccc(Cl)cc2Cl)C1=O	inconclusive: 31.6 µM [inhibitor, single point]	–
COc1cc2[nH]c(=O)n(CCC(=O)N3CCN(c4cccc(C)c4C)CC3)c(=O)c2cc1OC	inconclusive: 31.6 µM [inhibitor, single point]	–
COc1ccc(Cl)cc1NC(=O)CSc1nnc(Cc2ccc(C)cc2)c(=O)[nH]1	–	inactive: 1.17%
COc1ccc(Cl)cc1C(Nc1cccnc1)c1ccc2cccnc2c1O (stereo unspecified)	active: 8.91 µM	–
COc1ccc(Cl)cc1NC(=O)C1CCCN(c2ncnc3c2nc2n3CCCCC2)C1 (stereo unspecified)	inconclusive: 5.62 µM [inhibitor, single point]	–
CCN(CC(=O)NCc1ccc(Cl)cc1)C(=O)c1ccc(S(=O)(=O)N(C)C)cc1	–	inactive: 6.93%
CCOc1cc(/C=C/C(=O)NCCc2ccc(S(N)(=O)=O)cc2)ccc1OCC(C)C	inconclusive: 0.794 µM [inhibitor, full curve, poor fit]	–
Cc1ccc(S(=O)(=O)N2CCC(C(=O)N3CCc4ccccc43)CC2)cc1	inconclusive: 31.6 µM [inhibitor, single point]	–
CCc1cccc2c(C(=O)C(F)(F)F)cn(CC(=O)N3CCOCC3)c12	–	inactive: 4.6%
O=C1CCCC2=C1C(c1cccs1)Nc1ccccc1N2 (stereo unspecified)	–	inactive: 21.8%
O=C(Cc1ccc(S(=O)(=O)N2CCOCC2)s1)N(Cc1ccccc1)c1ccccc1	–	inactive: -6.55%
COC1=CC(=O)CC(C)C12Oc1c(Cl)c(OC)cc(OC)c1C2=O (stereo unspecified)	inconclusive: 0.501 µM [inhibitor, full curve, poor fit]	–
CCOc1ccc(NC(=O)c2cccs2)c([N+](=O)[O-])c1	inconclusive: 3.98 µM [inhibitor, single point]	–
C[C@@H](C(=O)Nc1ccc2ccccc2c1)[C@H]1C[C@]1(C)[C@H](NC(=O)c1cccnc1)c1ccccc1	inconclusive: 3.98 µM [inhibitor, full curve]	–
